Data as given in PubChem BioAssay AID463173 (ICCB-Longwood Screening Facility, Harvard Medical School, 2010).
The campaign covered roughly 52,000 compounds. About 4,300 (8.3%) were called active. No stated cut-off is given here; in the data, active means survival mostly below about 52% (no sharp cut-off); inactive means mostly above about 56%. Some of the results follow.

What follows are compounds tested on DeltatarO mutant (assay: S. aureus survival, RN4220 and DeltatarO strains – OD600, teichoic acid synthesis inhibitors, primary screen (AID 463173)). Details: S. aureus RN4220 wild type/DeltatarO growth, OD600, 18 h, hits give low values, screened at 18.75 µg/mL (by protocol).

SMILES	survival
O=C(Nc1ccc2[nH]c(=O)c(=O)[nH]c2c1)c1cccc(F)c1	inactive: 131%
COc1ccc2[nH]c(=O)c(CN(Cc3ccc(C)cc3)C(C)=O)cc2c1	inactive: 107%
CCc1cccc(NC(=O)CN(C)S(=O)(=O)c2ccc3c(c2)n(C)c(=O)c(=O)n3C)c1	inactive: 86%
CCOc1cc(C(=O)Nc2ccc3nc(N4CCN(C)CC4)cc(C)c3c2)cc(OCC)c1OCC	inactive: 137%
CC(=O)c1ccc(NS(=O)(=O)c2ccc3[nH]c(=O)[nH]c3c2)cc1	inactive: 101%
COC(=O)c1ccc(C=Nc2ccc3oc(-c4ccc(N(C)C)cc4)nc3c2)cc1	inactive: 85%
COc1ccc(-n2c(SCC(=O)Nc3ccc4c(c3)OCO4)nc3c([nH]c4ccccc43)c2=O)cc1	inactive: 91%
Cc1nc(-c2ccccc2)sc1C(N)=O	inactive: 68%
Cc1cc(C)cc(NC(=O)C2CCN(c3nnc(-n4c(C)ccc4C)s3)CC2)c1	inactive: 92%
CCOc1ccc2nc(Cl)c(C3CC(c4ccccc4)=NN3C(=O)CCC(=O)O)cc2c1 (centres undefined)	inactive: 51%
CCOc1ccc(NC(=O)N2CCC(n3c(C)nc4cccnc43)CC2)cc1	inactive: 94%
CCOc1ccc(C(=O)NCC(c2ccc3c(c2)OCO3)N2CCN(C)CC2)cc1 (centres undefined)	inactive: 78%
CCc1cc(=O)oc2c(C)c(OCC(=O)Nc3ccc(S(=O)(=O)N(CC)CC)cc3)ccc12	inactive: 57%
CCOc1ccc(S(=O)(=O)N(CC(=O)Nc2ccc(OC)c(Cl)c2)c2ccccc2)cc1	inactive: 75%
CNC(=O)C1CCN(S(=O)(=O)c2ccccc2)CC1	inactive: 96%
Cc1ccc(-c2nnc(Nc3ccc(O)cc3)c3ccccc23)cc1S(=O)(=O)NC(C)(C)CO	inactive: 254%
Cc1nn2c(C)c(C(=O)NCc3cccc(Br)c3)cnc2c1-c1ccccc1	inactive: 66%
O=C(CN1C(=O)c2ccccc2Sc2ncccc21)Nc1cccc(C(F)(F)F)c1	inactive: 88%
COc1ccc(Cl)cc1NC(=O)c1noc2c1CCc1ccccc1-2	inactive: 71%
COc1cccc(CNC(=O)C2=C(C)C(=O)OC23CCCCCC3)c1	inactive: 87%
Cc1cccc(N2CCN(C(=O)CCNS(=O)(=O)c3ccc4c(c3)CCN4C(=O)C3CC3)CC2)c1C	inactive: 73%
COc1ccc2nc(NC(=O)c3nc(S(=O)(=O)Cc4ccc(C)cc4)ncc3Cl)sc2c1	inactive: 82%

SMILES	survival
COc1ccc(Nc2cc(C)c3cc(NC(=O)COc4cccc(C)c4)ccc3n2)cc1	inactive: 102%
Cc1cc(C)c(Cn2cnc3nc4c(cc3c2=O)CCCC4)c(C)c1	inactive: 96%
COc1cc(-c2nc(-c3ccccc3)c(-c3ccc(Br)cc3)[nH]2)cc(OC)c1O	active: 0%
CCCCN(CC)C(=O)CSc1nc2ccccc2c(=O)n1Cc1ccco1	inactive: 82%
CC1CN(C(=O)N2CCC(C(=O)NCc3cccs3)CC2)c2ccccc2O1 (centres undefined)	inactive: 66%
CCC1CCCCN1CCCNC(=O)c1c(O)nc2cc(C)ccn2c1=O (centres undefined)	inactive: 80%
COC(=O)c1cc2sc(Cl)cc2n1Cc1nc(-c2ccccc2C)oc1C	inactive: 78%
COc1ccc(NC(=O)C2CCN(c3ccc(Sc4ccc(C)cc4)nn3)CC2)cc1	inactive: 74%
COc1cccc(CNC(=O)Cn2c(=O)nc(-c3ccccc3F)c3cc(Cl)ccc32)c1	inactive: 87%
CC1CCN(S(=O)(=O)c2ccc3c(c2)N(CC(=O)NC(C)(C)C)C(=O)CS3)CC1	inactive: 117%
COc1ccc(Nc2oc(/C=C/c3cc(OC)c(OC)c(OC)c3)nc2C#N)cc1	inactive: 50%
Cc1ccc(Cl)cc1N1CCN(C(=O)COc2cc(=O)n(C)c3ccccc23)CC1	inactive: 70%
O=C(NC1CCCCC1)c1ccco1	inactive: 89%
COc1ccc(Nc2nc3c(S(=O)(=O)c4ccc(C)cc4)nnn3c3ccsc23)cc1Cl	inactive: 44%
CC(=O)N1CCc2c(sc3c2c(=O)n(Cc2ccccc2)c(=O)n3Cc2ccccc2Cl)C1	inactive: 84%
COc1ccc(-c2nc3c4ccccc4n(CC(=O)N4CCN(c5ccccc5F)CC4)c(=O)n3n2)cc1	inactive: 74%
O=C(Cn1nnc2ccccc21)OCC(=O)c1ccc(Cl)cc1	inactive: 77%
CCc1ccc(NC(=O)CCCc2nnc3n(C(C)CC)c(=O)c4sccc4n23)cc1 (centres undefined)	inactive: 94%
Cc1ccc(NC(=O)CSc2nnc(NC(=O)NC3CCCCC3)s2)cc1	inactive: 80%
COc1ccccc1C(=O)Nc1ccc(S(=O)(=O)Nc2nc(C)cc(C)n2)cc1	inactive: 61%
O=C(Nc1ccc2c(c1)CCC2)C1CCN(c2ccc(S(=O)(=O)N3CCCC3)cc2)CC1	inactive: 103%
Cc1oc2ncnc(N3CCCCC3)c2c1C(=O)N1CCN(c2ccc(Cl)cc2)CC1	inactive: 60%
